Measurements as given in PubChem BioAssay AID2147 (National Center for Advancing Translational Sciences (NCATS), 2009).
The whole screen tested about 230,000 compounds, of which about 3,600 (1.6%) were called active. The shares of active, inactive and inconclusive entries below differ from those in the screen. Calls follow the shape of the dose curve; as a rule, active = well fitted inhibition curve with a large enough effect (not every such curve was filed as active); inconclusive = small, poorly fitted or top-dose-only effect, or another doubt; inactive = no such curve, though single readings can be large or run the other way. Potencies of inconclusive entries are doubtful fits and often do not repeat.
Also: nearly all actives have a fitted effect of over 50% in size.
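For activity change, negative = inhibition in this document: 0% = wells with enzyme and -100% = buffer wells without enzyme.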
Potency is read from the fitted curve at half-maximal effect; tags tell the direction and shape of the fitted curve.

Each compound was assayed against Lysine-specific demethylase 4E (Homo sapiens) (UniProt B2RXH2) (assay: qHTS Assay for Inhibitors of Human Jumonji Domain Containing 2E (JMJD2E)). Conditions: JMJD2E catalytic domain, FDH-coupled NADH fluorescence (FDH is formaldehyde dehydrogenase); series mostly up to 57.1 µM; activity change, negative = inhibition: at the top concentration.
Chain of UniProt B2RXH2 (B2RXH2 whole entry, looked up, the tested form may be a part): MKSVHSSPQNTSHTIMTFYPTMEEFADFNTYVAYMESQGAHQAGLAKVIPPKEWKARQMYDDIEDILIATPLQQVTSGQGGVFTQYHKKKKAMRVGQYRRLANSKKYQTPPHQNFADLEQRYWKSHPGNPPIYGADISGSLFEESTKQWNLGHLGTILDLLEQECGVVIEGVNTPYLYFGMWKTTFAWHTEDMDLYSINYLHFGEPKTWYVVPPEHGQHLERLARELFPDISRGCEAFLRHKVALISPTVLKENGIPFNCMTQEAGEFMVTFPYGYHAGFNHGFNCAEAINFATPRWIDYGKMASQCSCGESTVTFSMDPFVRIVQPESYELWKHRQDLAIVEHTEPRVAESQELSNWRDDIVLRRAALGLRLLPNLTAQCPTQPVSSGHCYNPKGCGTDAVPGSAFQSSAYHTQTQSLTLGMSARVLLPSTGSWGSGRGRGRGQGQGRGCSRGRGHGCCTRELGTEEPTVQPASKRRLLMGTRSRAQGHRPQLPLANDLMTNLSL
For `COCCNC(=O)Nc1ccc2c(c1)N(C)C(=O)CS2`, the “activity change, negative = inhibition” value was inactive: -6.95%. `COc1ccc(CNc2ncnc3c2[nH]c2cc(OC)c(OC)cc23)cc1` was tested, and the Potency was inconclusive: 28.2 µM [inhibitor, partial curve]. In the case of `C/C(=N\NS(=O)(=O)c1ccc(C)cc1)c1cc2ccccc2oc1=O`, the “activity change, negative = inhibition” value is reported as inactive: -19.1%. With `CSc1nc(=S)c2[nH]c(=S)[nH]c2[nH]1` the Potency was active: 11.2 µM. With `C=CCNc1oc(-c2ccc(OCC)cc2)nc1C#N` the Potency was inconclusive: 28.2 µM [inhibitor, partial curve]. With `COc1cccc(C2C=C(Nc3ccccc3)C(=O)N2c2ccccc2)c1` (configuration not stated) the Potency was inconclusive: 8.91 µM [inhibitor, single point]. With `O=C(C[n+]1ccccc1)c1ccc(-c2ccccc2)cc1` the Potency was inconclusive: 17.8 µM [inhibitor, partial curve]. In the case of `O=C(Cn1ncn2c(cc3ccccc32)c1=O)NCc1ccco1`, the “activity change, negative = inhibition” value is reported as inactive: 5.54%. In the case of `Cc1nc2c(=O)n(C)c(=O)[nH]c2n1Cc1ccccc1`, the Potency is reported as inconclusive: 35.5 µM [inhibitor, partial curve]. In the case of `COc1cccc(/C=N/NC(=O)c2ccc(-c3ccccc3)cc2)c1O`, the Potency is reported as inconclusive: 22.4 µM [inhibitor, single point]. `CSc1oc(-c2ccccc2)nc1S(=O)(=O)c1ccc(C)cc1` was tested, and the Potency was inconclusive: 35.5 µM [inhibitor, single point]. For `CSc1nc2sc3c(c2c(=O)n1C)CCC(C)C3` (configuration not stated), the “activity change, negative = inhibition” value was inactive: -13.6%. `CCNC(=O)N1CCCC(C(=O)c2ccc3cc(OC)ccc3c2)C1` (configuration not stated) was tested, and the Potency was inconclusive: 31.6 µM [inhibitor, partial curve]. For `CC(C)(C)OC(=O)NCCCC1=CC2=CC(=O)C(C)(O)C(=O)C2=CO1` (configuration not stated), the Potency was inconclusive: 6.31 µM [inhibitor, single point]. `CN1C=CC=C/C1=C1\SC(=S)N(N)C1=O` was tested, and the “activity change, negative = inhibition” value was inactive: -16.1%. With `CC(C)C1Oc2cc3oc(=O)ccc3cc2C1=O` (configuration not stated) the Potency was inconclusive: 28.2 µM [inhibitor, partial curve]. `CN(CCOc1ccccc1)c1ccc(S(=O)(=O)N2CCCCC2)cn1` was tested, and the Potency was inconclusive: 39.8 µM [inhibitor, single point]. For `CC1CCCCN1S(=O)(=O)c1ccc(C(=O)Nc2nnc(-c3ccccc3Cl)o2)cc1` (configuration not stated), the Potency was inconclusive: 39.8 µM [inhibitor, single point]. In the case of `O=C(COC(=O)c1ccccc1-c1nc2ccccc2s1)NC1CCS(=O)(=O)C1` (configuration not stated), the Potency is reported as inconclusive: 31.6 µM [inhibitor, single point]. For `Cc1cc(OCC(=O)N(C)c2ccccc2)cc2c1C(=O)CC(C)(C)O2`, the Potency was inconclusive: 31.6 µM [inhibitor, single point]. In the case of `Cn1c(=O)c([N+](=O)[O-])c(NCCCn2ccnc2)c2ccccc21`, the “activity change, negative = inhibition” value is reported as inactive: 12.1%. In the case of `COc1cc(C=Nc2ccccc2C(=O)Nc2ccccc2)cc(OC)c1OC`, the Potency is reported as inconclusive: 28.2 µM [inhibitor, partial curve]. For `CC(C)OC(=O)CC(=O)CSc1nc(-c2ccc(F)cc2)cc(-c2ccccc2)c1C#N`, the Potency was inconclusive: 35.5 µM [inhibitor, single point]. With `O=C(Nc1cccc(Oc2ccc3c(c2)C(=O)NC3=O)c1)c1cccs1` the “activity change, negative = inhibition” value was inactive: -0.363%. For `CC1(C)Cc2nc(N3CCCC3)c(C#N)cc2CO1`, the Potency was inconclusive: 31.6 µM [inhibitor, partial curve]. `CC(C)(C)c1ccc(C(=O)Nc2cccc3c(=O)[nH][nH]c(=O)c23)cc1` was tested, and the Potency was inconclusive: 25.1 µM [inhibitor, partial curve]. `O=C(O)C1=CCNCC1` was tested, and the Potency was “inactive”. With `CN1c2ccccc2C(=O)/C(=C\Nc2ccc(F)cc2)S1(=O)=O` the Potency was inconclusive: 1.41 µM [inhibitor, full curve, poor fit]. With `CCOC(=O)C1CCN(C(=O)c2cc3c(-c4ccc(OC)c(OC)c4)nn(C)c3s2)CC1` the Potency was inconclusive: 28.2 µM [inhibitor, single point]. For `O=C1Nc2ccc(F)cc2C12Nc1ccccc1-c1nnc(SCc3ccccc3F)nc1O2` (configuration not stated), the “activity change, negative = inhibition” value was inactive: 0.781%. With `Cc1ccc(-c2cc3ncc(C#N)c(N)n3n2)cc1` the Potency was inconclusive: 28.2 µM [inhibitor, partial curve]. `CCOC(=O)C(C)Sc1nc(-c2ccccn2)ncc1OC` (configuration not stated) was tested, and the Potency was inconclusive: 31.6 µM [inhibitor, single point]. For `COc1cc(OC)cc(C(=O)N[C@H](C(=O)Nc2nc3ccc(S(C)(=O)=O)cc3s2)C(C)C)c1`, the Potency was inconclusive: 35.5 µM [inhibitor, single point]. In the case of `O=c1n(Cc2ccccc2)c2cc(Cl)cnc2n1Cc1ccccc1`, the Potency is reported as inconclusive: 31.6 µM [inhibitor, partial curve]. `CC(C)Cn1c(-c2csc(C(C)C)c2)n[nH]c1=S` was tested, and the Potency was inconclusive: 39.8 µM [inhibitor, single point]. For `CC(NCc1ccco1)C(=O)N1CCc2ccccc2C1` (configuration not stated), the Potency was inconclusive: 39.8 µM [inhibitor, single point]. In the case of `COc1ccc(C2C=C(C34CC5CC(CC(C5)C3)C4)NC(=S)N2)cc1OC` (configuration not stated), the “activity change, negative = inhibition” value is reported as inactive: -9.26%. In the case of `COc1cccc(/C=N/N2C(=O)CSC2=S)c1O`, the “activity change, negative = inhibition” value is reported as inactive: -4.43%. `Cc1ccc2nc(N(CCCN(C)C)C(=O)c3ccc(Br)s3)sc2c1` was tested, and the Potency was inconclusive: 35.5 µM [inhibitor, single point]. `Cc1ccc2oc(=O)c3cc(C(=O)NCc4ccco4)sc3c2c1` was tested, and the Potency was inconclusive: 28.2 µM [inhibitor, single point]. In the case of `O=c1[nH]c(N/N=C/c2ccc(O)cc2)nc2ccccc12`, the Potency is reported as inconclusive: 25.1 µM [inhibitor, partial curve]. For `CC(=O)c1c(C(=O)O)c2ccccc2[nH]c1=O`, the Potency was inconclusive: 28.2 µM [inhibitor, partial curve]. With `O=C(O)/C=C/c1ccc2ccccc2n1` the Potency was inconclusive: 39.8 µM [inhibitor, single point]. `c1ccc(SCc2cn3cccnc3n2)nc1` was tested, and the Potency was inconclusive: 25.1 µM [inhibitor, partial curve]. `CC(C)OCCCNC(=O)c1c(N)n(/N=C/c2cccs2)c2nc3ccccc3nc12` was tested, and the Potency was inconclusive: 3.16 µM [inhibitor, partial curve]. In the case of `CCSc1nnc(NC(=O)C2CCCCC2C(=O)OCC(F)(F)C(F)F)s1` (configuration not stated), the “activity change, negative = inhibition” value is reported as inactive: -5.04%. With `COc1ccc(C2=Nc3ccc(Br)cc3C(c3ccccc3)N2CC(=O)NN)cc1` (configuration not stated) the Potency was inconclusive: 35.5 µM [inhibitor, single point]. With `COc1cccc(CN(CC2CCCO2)S(=O)(=O)c2ccc(-n3cnnn3)c(OC)c2)c1` (configuration not stated) the “activity change, negative = inhibition” value was inactive: 10.8%. With `COc1ccc(-c2cc(C(=O)Nc3ccccc3)on2)cc1` the Potency was inconclusive: 39.8 µM [inhibitor, single point]. With `O=C(Nc1ccc(C2SCCS2)cc1)c1ccccc1` the Potency was inconclusive: 25.1 µM [inhibitor, single point]. `Oc1cccc(C(=S)N2CCCCC2)c1` was tested, and the “activity change, negative = inhibition” value was inactive: -4%. In the case of `N#CCCN1CCCc2cc(N=Nc3ccc(C(F)(F)F)cc3)ccc21`, the “activity change, negative = inhibition” value is reported as inactive: -9.6%. With `CCOC(=O)c1ccc2c(c1)sc(=NC(=O)c1ccco1)n2CCOC` the Potency was inconclusive: 10 µM [inhibitor, partial curve]. In the case of `N#CC1=C(N)Nc2ncnn2C1c1ccccc1` (configuration not stated), the “activity change, negative = inhibition” value is reported as inactive: -11.6%. For `Cc1cc(=O)n(CC(=O)O)c2ccccc12`, the Potency was inconclusive: 3.55 µM [inhibitor, partial curve]. For `CCOc1ccc2oc(C(=O)NC(C)(C)CC)c(C)c2c1`, the Potency was inconclusive: 28.2 µM [inhibitor, partial curve]. `Cn1cc(/C=N/n2cnc3scc(-c4ccccc4)c3c2=O)c2ccccc21` was tested, and the Potency was inconclusive: 39.8 µM [inhibitor, single point]. `COc1ccc(-n2c(C)cc(-c3csc(N)n3)c2C)cc1` was tested, and the Potency was inconclusive: 31.6 µM [inhibitor, partial curve, poor fit]. In the case of `CSc1nc2c(cc1C#N)CCC2`, the Potency is reported as inconclusive: 25.1 µM [inhibitor, single point]. `CCC1CCC2(CC1)NNC(=S)NN2` was tested, and the Potency was inconclusive: 22.4 µM [inhibitor, partial curve]. In the case of `Cc1cccc(C2NC(=O)c3c(sc(C)c3C)N2)c1O` (configuration not stated), the “activity change, negative = inhibition” value is reported as inactive: -27.2%. In the case of `CCCCCCCCCCC(C)(C)C(=O)Nc1c(OC)cc(OC)cc1OC`, the Potency is reported as inconclusive: 25.1 µM [inhibitor, single point]. `COc1ccc2nc(SCC(=O)Nc3ccc(S(=O)(=O)N4CCCC4)cc3)c(C#N)cc2c1` was tested, and the Potency was inconclusive: 35.5 µM [inhibitor, single point]. `Cc1nn(C(C)(C)C)c(OC(=O)C2CCCC2)c1S(=O)(=O)c1ccccc1` was tested, and the “activity change, negative = inhibition” value was inactive: -3.44%. With `S=c1[nH]nc(-c2cccnc2)n1/N=C/c1ccccc1` the “activity change, negative = inhibition” value was inactive: 1.03%. With `S=c1[nH]nc(C2CCCCC2)n1/N=C/C=C/c1ccccc1` the “activity change, negative = inhibition” value was inactive: 2.16%. In the case of `Cc1ccc2cc(CCNC(=O)c3cccs3)c(=O)[nH]c2c1C`, the Potency is reported as inconclusive: 31.6 µM [inhibitor, single point]. `Cc1nc(NCc2ccccc2)c2nc(-c3ccccc3)n(C3CCN(Cc4ccccc4)C3)c2n1` (configuration not stated) was tested, and the Potency was inconclusive: 25.1 µM [inhibitor, partial curve]. With `COc1ccc2ccccc2c1C1CC(=O)N2CN(C)CSC2=C1C#N` (configuration not stated) the Potency was inconclusive: 25.1 µM [inhibitor, single point]. For `COc1ccc(CCC(=O)N(c2nnc(-c3cccnc3)s2)C(C)C)cc1`, the Potency was inconclusive: 31.6 µM [inhibitor, single point]. For `CCOC(=O)c1oc2c(CN3CCN(CCO)CC3)c(O)c(CC)cc2c(=O)c1-c1nc2ccccc2s1`, the Potency was inconclusive: 25.1 µM [inhibitor, single point]. With `COC(=O)c1ccc(Nc2cc(C)nc3ccc(C)cc23)cc1` the Potency was inconclusive: 39.8 µM [inhibitor, single point].
